Experimental data taken from PubChem BioAssay AID1508624 (National Center for Advancing Translational Sciences (NCATS), 2021).
The whole screen tested about 48,000 compounds, of which about 120 (0.25%) were called active. Not shown: some 4% with an inconclusive outcome. Calls follow the shape of the dose curve; as a rule, active = well fitted activation curve with a large enough effect; inconclusive = small, poorly fitted or top-dose-only effect, or another doubt; inactive = no such curve, though single readings can be large or run the other way. This is a selection; strong and weak results do not stand in their true shares. The source gives no active or inactive call for entries shown without one.

Experiment: Primary qHTS for Identification of Small Molecule Activators of Huntingtin-Antisense Promoter Activity; also: nearly all actives have a fitted effect of over 55% in size
Conditions: HEK293 HTT-AS promoter firefly luciferase reporter, 24 h; activity change, positive = activation: at 57.5 µM (top of the series), percent change from vehicle, -100% = no light
Outline: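 Firefly luciferase signal from promoter-reporter HEK293 cells was scaled between vehicle (0%) and zero RLU (-100%). Compounds were tested at final concentrations of up to 57.5 uM over 24 h at 37 degrees C. PTC124 at 50 uM final served as control inhibitor.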

SMILES | activity change, positive = activation | Potency
COc1ccccc1CNC(=O)CC(c1ccc(F)cc1)N1Cc2ccccc2C1=O (stereo not drawn) | -18.3% | –
Cc1ccc(C2C(=O)N(C3CCC(C)CC3)CC(=O)N2C2CCCC2)cc1 (stereo not drawn) | -13.1% | –
Cc1cc(NS(=O)(=O)c2ccc(NC(=O)COc3c(C)ccc(C)c3C)cc2)nc(C)n1 | -14.1% | –
COc1ccc(CNC(=O)c2cc3c(=O)n(Cc4ccco4)ccc3nc2C)cc1 | -12.9% | –
O=C(C[C@@H]1CC=CCCC(=O)O[C@H](c2ccccc2)CNC1=O)NCc1ccc(Cl)cc1 | inactive: -17% | –
COc1ccc(CC(=O)Nc2sc3c(c2C(=O)Nc2ccccc2)CCCCC3)cc1 | inactive: -34.9% | –
Clc1ccc(Nc2nnc(Cc3ccncc3)c3ccccc23)cc1 | – | inactive
CC1CCCc2sc3nc(SCC(=O)c4ccc(Br)cc4)nc(N)c3c21 (stereo not drawn) | -12.9% | –
C#Cc1ccc(-c2ccccc2F)cc1 | inactive: -1.21% | –
CC(=O)N1CCc2c(sc(NC(=O)CSc3ccccc3)c2-c2nc3ccccc3s2)C1 | inactive: -27.9% | –
CCOc1ccc2nc(Cl)c(C3CC(c4ccc(OC)cc4)=NN3S(C)(=O)=O)cc2c1 (stereo not drawn) | -13.8% | –
Cc1cc(F)ccc1NC(=O)CCS(=O)(=O)c1ccc2c(c1)CC(C)N2C(=O)C1CC1 (stereo not drawn) | -12.3% | –
Cc1ccccc1NC(=O)CSc1nnc(COc2ccc(Cl)cc2)o1 | -10.4% | –
Cc1ccc(O)c(NC(=O)c2noc3c2CCCC3)c1 | 75.1% | –
Cc1c(Cl)cccc1NC(=O)CC(c1ccc(F)cc1)N1Cc2ccccc2C1=O (stereo not drawn) | -52.6% | –
O=C(NCCCc1nc2ccccc2n1Cc1ccccc1Cl)c1ccco1 | -24% | –
NC(=O)c1ccc(NC(=O)C2CCN(S(=O)(=O)Cc3ccccc3)CC2)cc1 | 4.43% | –
CCn1ccc2c(OCC(=O)NCc3ccccc3)cccc2c1=O | inactive: -10.5% | –
COc1ccc(Cl)cc1S(=O)(=O)Nc1cccc(-c2ccc(N3CCCC3)nn2)c1 | 2.91% | –
COc1ccc2c(c1)cc1c(=O)n(CC(=O)NCCCOC(C)C)nc(C)n12 | -5.84% | –
CCOC(=O)c1ccc(N2CCN(c3cc(C)ccc3C)CC2)c(NC(=O)Nc2ccc(CC)cc2)c1 | -2.37% | –
Cc1ccc(NC(=O)c2c(C(=O)Nc3ccccc3)sc3nc(C)cc(=O)n23)cc1 | -9.27% | –
O=C(O)[C@H](CC(=O)N1C[C@@H]2CCCC[C@H]2C1)Cc1ccccc1 | inactive: -3.78% | –
O=S(=O)(Nc1cccc(-c2ccc(N3CCCC3)nn2)c1)c1cc(F)ccc1F | 3.21% | –

SMILES | activity change, positive = activation | Potency
CCOC(=O)c1c(C)n(S(=O)(=O)c2ccc(C)cc2)c2ccc(NS(=O)(=O)c3ccc(C)cc3)cc12 | -19.2% | –
Cc1ccccc1Nc1nnc(-c2ccc(C)c(S(=O)(=O)N3CCCCC3)c2)c2ccccc12 | -32.2% | –
Cc1ccccc1C(=O)Nc1ccc2oc(-c3ccc(Cl)c(Cl)c3)nc2c1 | 15.3% | –
Cc1ccc(COc2cccc3cc(-c4noc(-c5ccc(C)cc5)n4)c(=O)oc23)cc1 | inactive: 0.114% | –
CCOc1ccc(CCNC(=O)Cn2nc(CC)n3c(cc4c(OC)cccc43)c2=O)cc1OCC | -7.65% | –
CCc1nn2c(=O)c(S(=O)(=O)Nc3ccc(C)cc3C)c(C)nc2s1 | -23.3% | –
Cc1cc(Cl)ccc1NC(=O)CCS(=O)(=O)c1ccc2c(c1)CC(C)N2C(=O)C1CC1 (stereo not drawn) | -20.1% | –
O=C(Nc1cc(Cl)ccc1O)c1cc(-c2ccc3c(c2)OCO3)on1 | 76.3% | –
CCOC(=O)Cn1c(=N)n(CCOc2ccc(OC)cc2)c2ccccc21 | 2.36% | –
Cn1c(CNC(=O)CSc2nc(-c3ccccc3F)nc3cc(=O)[nH]n23)nc2ccccc21 | 1.3% | –
CCCOc1ccc(C2C(=O)N(C3CCCCCC3)CC(=O)N2C(C)C)cc1OC (stereo not drawn) | -2.01% | –
CCOC(=O)CSc1nnc(-c2ccc(OC)cc2)o1 | -40% | –
CCc1cccc(CC)c1NC(=O)c1c(C)oc2ccc(O)c(CN3CCN(C)CC3)c12 | 2.37% | –
CCOc1ccccc1CNC(=O)c1nc(-c2ccc(Cl)cc2)n2c1CCCCC2 | -40.4% | –
CCCOc1ccc(NC(=O)CC2C(=O)N(c3ccccc3)C(=O)N2Cc2ccc(F)cc2)cc1 (stereo not drawn) | -29.4% | –
COc1ccc2c(C)c(CCC(=O)NCCc3ccc(OC)c(OC)c3)c(=O)oc2c1 | -12.9% | –
CC(=O)Nc1cc(C(=O)NCc2ccc(F)cc2)ccc1S(=O)(=O)c1ccc(C)cc1 | inactive: -26.1% | –
CCOC(=O)c1ccc(NC(=O)CC2C(=O)N(c3cccc(OC)c3)C(=O)N2Cc2cccnc2)cc1 (stereo not drawn) | -5.17% | –
O=C(Nc1cc(C(F)(F)F)ccc1Cl)c1noc2c1CCCCC2 | -2.67% | –
COc1ccc(-c2cc(C(=O)Nc3cccc(C(C)=O)c3)no2)cc1OC | 0.898% | –
N#CC1=C2SCN(C3CCCCC3)CN2C(=O)CC1c1ccc(Br)cc1 (stereo not drawn) | inactive: -12.4% | –
CC1CCC(N2CC(=O)N(C3CCCCC3)C(c3ccc(Cl)cc3)C2=O)CC1 (stereo not drawn) | -10.6% | –
CCOc1ccccc1CNC(=O)CCc1c(C)nn(-c2ccc(N3CCCCC3)nn2)c1C | 0.341% | –
O=S(=O)(Nc1ccc(-c2ccc(N3CCCC3)nn2)cc1)c1ccc(C(F)(F)F)cc1 | -4.99% | –
